Source: paper PMC4336329 (PLoS ONE, 2015)
Screen size: about 310,000 compounds; about 14,000 (4.5%) showed an effect of 50% or more. Effects have a minus sign here. The list shows a part of the results.

Biological target: human ether-à-go-go-related gene (hERG) potassium channel (human, UniProt Q12809)
Assay: primary screen, population patch clamp on CHO cells stably expressing hERG
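Further: peak tail current of the secondary pulse compared with the same well before compound.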

Chain of human ether-à-go-go-related gene (hERG) potassium channel (Q12809 whole entry, looked up): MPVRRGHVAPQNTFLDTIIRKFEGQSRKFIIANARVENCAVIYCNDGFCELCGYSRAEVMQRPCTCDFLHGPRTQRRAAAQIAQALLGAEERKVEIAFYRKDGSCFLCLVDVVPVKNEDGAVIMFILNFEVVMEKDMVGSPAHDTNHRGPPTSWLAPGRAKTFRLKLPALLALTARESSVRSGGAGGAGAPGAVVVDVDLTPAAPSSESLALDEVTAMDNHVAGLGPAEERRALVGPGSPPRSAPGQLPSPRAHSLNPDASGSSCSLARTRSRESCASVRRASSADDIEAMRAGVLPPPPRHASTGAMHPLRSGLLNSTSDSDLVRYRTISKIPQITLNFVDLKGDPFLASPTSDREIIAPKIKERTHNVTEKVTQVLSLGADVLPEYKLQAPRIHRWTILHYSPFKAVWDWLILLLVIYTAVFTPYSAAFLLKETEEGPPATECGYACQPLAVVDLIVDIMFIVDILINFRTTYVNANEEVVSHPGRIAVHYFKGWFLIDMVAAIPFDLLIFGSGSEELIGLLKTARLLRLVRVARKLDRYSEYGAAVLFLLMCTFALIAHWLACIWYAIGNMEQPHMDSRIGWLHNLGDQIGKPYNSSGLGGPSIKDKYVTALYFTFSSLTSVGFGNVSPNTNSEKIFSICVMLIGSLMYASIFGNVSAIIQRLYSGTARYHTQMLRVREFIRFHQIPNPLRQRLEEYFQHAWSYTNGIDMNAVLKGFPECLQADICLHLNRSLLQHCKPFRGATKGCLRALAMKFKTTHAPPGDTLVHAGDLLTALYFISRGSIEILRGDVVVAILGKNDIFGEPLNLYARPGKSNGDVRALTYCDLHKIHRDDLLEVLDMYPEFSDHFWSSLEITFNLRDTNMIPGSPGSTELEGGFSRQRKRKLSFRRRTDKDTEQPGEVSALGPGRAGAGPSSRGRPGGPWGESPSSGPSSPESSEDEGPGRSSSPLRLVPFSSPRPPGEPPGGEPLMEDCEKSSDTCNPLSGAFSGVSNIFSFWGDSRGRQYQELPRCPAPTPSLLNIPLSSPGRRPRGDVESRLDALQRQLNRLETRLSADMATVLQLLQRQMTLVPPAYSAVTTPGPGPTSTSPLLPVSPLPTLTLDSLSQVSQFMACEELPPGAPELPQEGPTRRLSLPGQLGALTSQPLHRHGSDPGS

Question: How did the “hERG current change (%, negative = inhibition) at 10uM” value turn out when `CC1CCN(c2oc(-c3ccccc3Cl)nc2C#N)CC1` was run?
Answer: 16.6%

Question: Which “hERG current change (%, negative = inhibition) at 10uM” value does the source give for `O=S(=O)(Nc1nnc(-c2ccccc2)s1)c1ccc(Cl)cc1` here?
Answer: 0.769%

Question: Which “hERG current change (%, negative = inhibition) at 10uM” value does the source give for `COc1cccc(/C=N/NC(=O)CC(=O)NCCc2ccccc2)c1OC` here?
Answer: 6.02%

Question: `CC12CCC(C(=O)Nc3nc4ccccc4s3)(OC1=O)C2(C)C` (stereo not shown) was tested. Which “hERG current change (%, negative = inhibition) at 10uM” value did it give?
Answer: 2.26%

Question: Which “hERG current change (%, negative = inhibition) at 10uM” value does the source give for `Cc1c(NC(=S)N/N=C/c2ccc([N+](=O)[O-])cc2O)c(=O)n(-c2ccccc2)n1C` here?
Answer: -1.93%

Question: Which “hERG current change (%, negative = inhibition) at 10uM” value does the source give for `Cc1csc(NC(=O)CSc2nnc(Cn3c(=O)sc4ccccc43)n2-c2ccccc2)n1` here?
Answer: -9.94%

Question: How did the “hERG current change (%, negative = inhibition) at 10uM” value turn out when `c1csc(-c2ccnc3ncnn23)c1` was run?
Answer: 4.46%

Question: For `CCc1cc(S(=O)(=O)N2CCN(C(=O)c3ccco3)CC2)ccc1OC`, which “hERG current change (%, negative = inhibition) at 10uM” value is on record?
Answer: 1.76%

Question: With `C=CCNC(=O)c1scc2c1CCCC2` as the compound, how does the “hERG current change (%, negative = inhibition) at 10uM” value read?
Answer: 12.4%

Question: `O=C(NCc1ccc(OC(F)(F)F)cc1)c1cc(-c2ccccc2)nn1CC1CC(c2cccnc2)=NO1` (stereo not shown) was tested. Which “hERG current change (%, negative = inhibition) at 10uM” value did it give?
Answer: -57.4%

Question: `COc1cc2c(cc1OC)C(C)N(C(=O)[C@@H](NC(=O)c1ccccc1)C(C)C)CC2` (stereo partly shown) was tested. Which “hERG current change (%, negative = inhibition) at 10uM” value did it give?
Answer: 11%

Question: `COc1cccc(C(=O)c2c(C)c(CCC#N)n3ccccc23)c1` was tested. Which “hERG current change (%, negative = inhibition) at 10uM” value did it give?
Answer: -10.6%

Question: For `CCN1C(=O)c2cccc3c(S(=O)(=O)N(C(=O)c4ccncc4)c4ccc(OC)cc4)ccc1c23`, which “hERG current change (%, negative = inhibition) at 10uM” value is on record?
Answer: -7.51%

Question: Which “hERG current change (%, negative = inhibition) at 10uM” value does the source give for `Cc1ccc2cc(C#N)c(N3CCCN(S(=O)(=O)c4ccccc4)CC3)nc2c1` here?
Answer: -10.3%

Question: With `COc1ccc(Nc2cc(C(=O)NCCCN3CCOCC3)c3ccccc3n2)cc1` as the compound, how does the “hERG current change (%, negative = inhibition) at 10uM” value read?
Answer: -26.5%

Question: With `O=c1[nH]c(C2CCN(S(=O)(=O)c3ccc(C(F)(F)F)cc3)CC2)nc2c1nnn2Cc1ccc(F)cc1` as the compound, how does the “hERG current change (%, negative = inhibition) at 10uM” value read?
Answer: -18%

Question: How did the “hERG current change (%, negative = inhibition) at 10uM” value turn out when `COc1cccc(CNC2CN3CCC2CC3)c1OC.Cl` (stereo not shown) was run?
Answer: 12.2%

Question: With `CC1Cc2ccccc2N1C(=O)CSc1nc2cc3c(cc2cc1C#N)OCO3` (stereo not shown) as the compound, how does the “hERG current change (%, negative = inhibition) at 10uM” value read?
Answer: 4.54%

Question: With `CC(C)(C)c1cc(CCC(=O)NN)cc(C(C)(C)C)c1O` as the compound, how does the “hERG current change (%, negative = inhibition) at 10uM” value read?
Answer: -9.33%

Question: Which “hERG current change (%, negative = inhibition) at 10uM” value does the source give for `CC(=O)Nc1ccc(S(=O)(=O)Oc2ccc(C(=S)N3CCC(O)CC3)cc2)cc1` here?
Answer: -11.7%

Question: Which “hERG current change (%, negative = inhibition) at 10uM” value does the source give for `CC(=O)c1ccc(NC(=S)NN2C(C)CCCC2C)cc1` (stereo not shown) here?
Answer: -31.7%

Question: Which “hERG current change (%, negative = inhibition) at 10uM” value does the source give for `Cc1cc(C)c(C)c(S(=O)(=O)N2CCC(C(=O)N3CC(C)CC(C)C3)CC2)c1C` (stereo not shown) here?
Answer: -1.87%

Question: `CCOC(=O)c1sc(NC(=O)Nc2ccc(Cl)cc2)nc1C` was tested. Which “hERG current change (%, negative = inhibition) at 10uM” value did it give?
Answer: 13.3%

Question: `O=C(CO/N=C/c1ccccc1)N1c2ccccc2Oc2ccccc21` was tested. Which “hERG current change (%, negative = inhibition) at 10uM” value did it give?
Answer: -0.399%

Question: How did the “hERG current change (%, negative = inhibition) at 10uM” value turn out when `CN(C(=O)COC(=O)c1ccccc1SCC(=O)N1CCCC1)C1(C#N)CCCCC1` was run?
Answer: -3.08%

Question: How did the “hERG current change (%, negative = inhibition) at 10uM” value turn out when `C=CCNC(=O)/C(=C/c1ccc(Br)cc1)NC(=O)c1ccccc1OC` was run?
Answer: -45.9%

Question: How did the “hERG current change (%, negative = inhibition) at 10uM” value turn out when `CC(C)=CCc1c(O)c(CC=C(C)C)c2c(c1O)C(=O)CC(c1ccc(O)cc1)O2` (stereo not shown) was run?
Answer: 8.92%

Question: `Cc1ccccc1-n1cnnc1SCC(=O)Nc1cccnc1Cl` was tested. Which “hERG current change (%, negative = inhibition) at 10uM” value did it give?
Answer: 4.06%

Question: How did the “hERG current change (%, negative = inhibition) at 10uM” value turn out when `Cn1cccc1/C=C1\SC(=Nc2ccc(O)cc2)NC1=O` was run?
Answer: -13.4%

Question: How did the “hERG current change (%, negative = inhibition) at 10uM” value turn out when `Cl.OC(COc1ccc2c(c1)OCO2)CN1CCc2ccccc2C1` (stereo not shown) was run?
Answer: -28.5%

Question: For `CCSc1ccccc1C(=O)NCc1ccc(S(N)(=O)=O)cc1`, which “hERG current change (%, negative = inhibition) at 10uM” value is on record?
Answer: -0.695%

Question: With `CC(C)NC(=O)NNC(=O)Cn1nnc(-c2cccc(Cl)c2Cl)n1` as the compound, how does the “hERG current change (%, negative = inhibition) at 10uM” value read?
Answer: 8.05%

Question: `COc1ccc(NC(=O)CC2(CC(=O)N3CCOCC3)CCCC2)cc1Cl` was tested. Which “hERG current change (%, negative = inhibition) at 10uM” value did it give?
Answer: -6.3%

Question: `CC(C)c1ccccc1OCC(=O)N1CCCN(C)CC1` was tested. Which “hERG current change (%, negative = inhibition) at 10uM” value did it give?
Answer: 6.46%

Question: `Cc1nnsc1C(=O)NCc1c(F)cccc1Cl` was tested. Which “hERG current change (%, negative = inhibition) at 10uM” value did it give?
Answer: 14.7%

Question: With `CCOC(=O)C1CCN(C(=O)Cc2c(C(=O)O)n(C)c3ccccc23)CC1` as the compound, how does the “hERG current change (%, negative = inhibition) at 10uM” value read?
Answer: 0.76%

Question: With `O=C(Cc1n[nH]c(=O)c2ccccc12)N1CCN(c2ccc(F)cc2)CC1` as the compound, how does the “hERG current change (%, negative = inhibition) at 10uM” value read?
Answer: -30.4%

Question: Which “hERG current change (%, negative = inhibition) at 10uM” value does the source give for `COC(=O)C1=C(c2ccc3ccccc3c2)C[C@@H]2CC[C@H]1N2C(=O)N1CCC(O)CC1` here?
Answer: 2.99%

Question: For `O=C(O)CCCN1C(=O)C2C3CCC(O3)C2C1=O` (stereo not shown), which “hERG current change (%, negative = inhibition) at 10uM” value is on record?
Answer: 10.9%

Question: Which “hERG current change (%, negative = inhibition) at 10uM” value does the source give for `Cc1ccc(/C=N/N2C(=O)c3ccccc3NC2c2ccc(C)cc2)cc1` (stereo not shown) here?
Answer: 15.3%

Question: For `Nc1ccc2c(c1)-c1ccccc1S(=O)(=O)N2`, which “hERG current change (%, negative = inhibition) at 10uM” value is on record?
Answer: 11.1%

Question: With `CCC(=O)NC(=S)Nc1ccc(NC(=S)NC(=O)c2ccc(C)cc2)cc1` as the compound, how does the “hERG current change (%, negative = inhibition) at 10uM” value read?
Answer: 12.9%

Question: How did the “hERG current change (%, negative = inhibition) at 10uM” value turn out when `COc1ccccc1/C=C1\SC(=S)N(CCC(=O)NCCc2ccc(O)cc2)C1=O` was run?
Answer: 15.1%

Question: Which “hERG current change (%, negative = inhibition) at 10uM” value does the source give for `CCOc1cc(/C=N\Nc2ncc(F)c(N3CCOCC3)n2)ccc1Oc1nc(Cl)ncc1F` here?
Answer: -51.8%

Question: For `CCOC(=O)c1ccc(NC(=S)NCCCn2ccnc2)cc1`, which “hERG current change (%, negative = inhibition) at 10uM” value is on record?
Answer: 21.1%

Question: With `O=C(C1CCC(CNc2c(N3CCCCC3)c(=O)c2=O)CC1)N1CCN(C2CCCCC2)CC1` (stereo not shown) as the compound, how does the “hERG current change (%, negative = inhibition) at 10uM” value read?
Answer: 5.73%

Question: `COc1cc2c(cc1OC)CN(C(=O)c1ccc(Br)o1)CC2` was tested. Which “hERG current change (%, negative = inhibition) at 10uM” value did it give?
Answer: -12.9%

Question: Which “hERG current change (%, negative = inhibition) at 10uM” value does the source give for `CC(Sc1ccccc1)C(=O)NNC(=O)c1ccncc1` (stereo not shown) here?
Answer: 17.1%

Question: Which “hERG current change (%, negative = inhibition) at 10uM” value does the source give for `CCN1CCN(C(=O)c2ccc(Cn3c(=O)[nH]c4cc(OC)c(OC)cc4c3=O)cc2)CC1` here?
Answer: 6.64%

Question: How did the “hERG current change (%, negative = inhibition) at 10uM” value turn out when `O=C(CCNC(=O)c1ccco1)Nc1ccc(SC(F)F)cc1` was run?
Answer: -52.7%

Question: Which “hERG current change (%, negative = inhibition) at 10uM” value does the source give for `O=C(NCCc1ccc(Cl)cc1)C1CCN(C(=O)c2sccc2-n2cccc2)CC1` here?
Answer: -32.9%

Question: For `COc1cc(C(=O)OCCCc2cc3ccccc3c(=O)o2)cc(OC)c1OC`, which “hERG current change (%, negative = inhibition) at 10uM” value is on record?
Answer: -13.7%

Question: How did the “hERG current change (%, negative = inhibition) at 10uM” value turn out when `Cc1ccc(CNC(=O)CN2CCN(Cc3ccc(C)cc3)C2=O)cc1` was run?
Answer: -26.5%

Question: Which “hERG current change (%, negative = inhibition) at 10uM” value does the source give for `Cc1cc2ccc(C)c(C)c2nc1SCC#N` here?
Answer: 6.95%

Question: How did the “hERG current change (%, negative = inhibition) at 10uM” value turn out when `CCn1c(CNc2ccc(F)cc2)nnc1SCC(=O)Nc1ccccc1OC` was run?
Answer: -30.2%
